# Data: PubChem BioAssay AID1508624 (National Center for Advancing Translational Sciences (NCATS), 2021)
# Hit rate of the full screen: of about 48,000 compounds, about 120 (0.25%) were called active. About 4% were inconclusive and are not listed. Calls follow the shape of the dose curve; as a rule, active = well fitted activation curve with a large enough effect; inconclusive = small, poorly fitted or top-dose-only effect, or another doubt; inactive = no such curve, though single readings can be large or run the other way. This is one part of the list.
# Experiment: Primary qHTS for Identification of Small Molecule Activators of Huntingtin-Antisense Promoter Activity; also: nearly all actives have a fitted effect of over 55% in size
# Conditions: HEK293 HTT-AS promoter firefly luciferase reporter, 24 h; series mostly up to 57.5 µM; activity change, positive = activation: at the top concentration
# Summary of the method: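 Firefly luciferase readout (Dual-Glo, 10 min RT) after 24 h, 37 °C compound exposure (final up to 57.5 uM) of HEK293 reporter cells cultured 24 h beforehand; PTC124 at 50 uM final as control inhibitor; activity scaled vehicle 0%, zero RLU -100%.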
row,Compound,"activity change, positive = activation"
1,CCN(C(=O)CSc1nnc(-c2cc3occc3n2C)n1-c1ccccc1C)c1ccccc1,inactive: -3.37%
2,O=C(CN1C(=O)COc2ccc(S(=O)(=O)N3CCOCC3)cc21)NCc1ccc(Cl)cc1,inactive: -4.52%
3,CS(=O)(=O)c1ncc(Cl)c(C(=O)N2CCN(c3cccc(Cl)c3)CC2)n1,inactive: -94.3%
4,CC1c2ccccc2CN1NC(=O)c1ccc(Cl)c(S(N)(=O)=O)c1 (stereo unspecified),inactive: -7.76%
5,CCOc1ccc(Nc2sc(C(=O)c3ccc(F)cc3)c(N)c2S(=O)(=O)c2ccc(C)cc2)cc1,inactive: -12.4%
6,Cc1oc2ncn(CC(C)C)c(=O)c2c1C(=O)NCc1cccc(Cl)c1,inactive: -14.5%
7,CC(C)Oc1ccc(CNC(=O)c2cc3cccc4c3n2CC(C)S4)cc1 (stereo unspecified),inactive: -11.1%
8,CCc1ccc(-c2nc3c(c(SCc4ccccc4)n2)Cc2c(CO)cnc(C)c2O3)cc1,inactive: -13.9%
9,Cc1ccc(-c2onc(C)c2C)cc1S(=O)(=O)N1CCC(C)CC1,inactive: -48.7%
10,Cc1ccc(Cn2c(C(=O)Nc3ccc(Cl)cc3)cc3sccc32)cc1,inactive: -0.383%
11,COc1ccc(Cl)cc1NC(=O)c1ccc(CN2C(=O)CCn3nc(C)cc32)cc1,inactive: -28.7%
12,COc1cc(Cl)c(C)cc1NC(=O)CNC(=O)Cn1ccc2ccccc2c1=O,inactive: -11.8%
13,CCOc1ccc(OCCOCCn2c(-c3ccc(Cl)cc3)nc3ccccc3c2=O)cc1,inactive: -14.7%
14,Cc1cccc(-c2nc(SCCCOc3cc(C)c(Cl)c(C)c3)n3[nH]c(=O)cc3n2)c1,inactive: 7.1%
15,CSc1ncc(C(=O)NCc2ccc(F)cc2)c(-c2ccccc2)n1,inactive: -16.9%
16,CCCCN(CC)CCCNC(=O)Cn1nc(CC)n2c(cc3sccc32)c1=O,inactive: -6.13%
17,COc1ccc2c(c1)c1c(c(=O)n(CCc3ccccc3)c(=O)n1Cc1cccc(C)c1)n2C,inactive: -10.4%
18,CCOC(=O)c1ccc(NC(=O)CCCn2nc(C)c3sc4ccccc4c3c2=O)cc1,inactive: -24.3%
19,CCCc1oc2ccc(NS(=O)(=O)c3ccc(OCC)cc3)cc2c1C(=O)OCC,inactive: -38.7%
20,COC(=O)CC(=O)CSc1nc2cc(C(=O)NC(C)C)ccc2c(=O)n1CCc1ccccc1,inactive: -5.41%
21,Cc1ccc(C(=O)OC2=C(C(=O)c3ccccc3)N(C)S(=O)(=O)c3ccccc32)cc1,inactive: -40.9%
22,O=C(Cc1ccc(-c2ccccc2)cc1)NCCS(=O)(=O)N1CCN(c2cccc(Cl)c2)CC1,inactive: -4.96%
23,CC(=O)N1CCC2(CC1)OC(=O)C(C)=C2C(=O)NCc1ccccc1Cl,inactive: 24.4%
24,CC(=O)OC1=C(C(C)=O)N(Cc2ccccc2)S(=O)(=O)c2ccccc21,inactive: -12.4%

row,Compound,"activity change, positive = activation"
1,Cc1cc(NC(=O)c2ccc(F)cc2)ccc1-c1cc2ccccc2oc1=O,"inactive: 14.3% [at 11.5 µM, percent change from vehicle, -100% = no light]"
2,Cc1ccc(Cl)cc1NC(=O)c1csnn1,inactive: 3.61%
3,CC1CCN(C(=O)CCS(=O)(=O)c2cc3c(cc2Cl)NC(=O)CO3)CC1,inactive: -15.7%
4,CCOC(=O)c1nnn(CC(=O)NC(=O)Nc2ccccc2F)c1C(=O)OCC,inactive: -15.8%
5,CCCCSc1nnc2[nH]c(=O)cc(C)n12,inactive: -0.456%
6,O=C(c1cc(-c2ccc(Br)cc2)n[nH]1)N1CCN(S(=O)(=O)c2ccc(Br)s2)CC1,inactive: -31.1%
7,CCOc1ccc(Nc2nc(N)c(C(=O)c3ccccc3Cl)s2)cc1,inactive: -24.9%
8,CCN(CC)S(=O)(=O)c1ccc(NC(=O)c2nn(C)c3c2CSc2ccccc2-3)cc1,inactive: -25.9%
9,Cc1cccc(CC(=O)NC2CC(=O)N(c3ccc4c(c3)OCCO4)C2)c1 (stereo unspecified),inactive: -0.511%
10,Fc1ccc(Nc2nc(SCc3cccc(F)c3)nc3ccccc23)cc1,inactive: -34.9%
11,Cc1ccccc1CSc1ncc(Cl)c(C(=O)NCc2ccccc2)n1,inactive: -17.8%
12,CCOC(=O)c1ccc(N2C(=O)c3[nH]nc(-c4ccc(C)cc4)c3C2c2ccc(O)cc2)cc1 (stereo unspecified),inactive: -65.3%
13,CCC(=O)N1CCc2cc(Br)cc(S(=O)(=O)CCC(=O)Nc3ccc(CC)cc3)c21,inactive: 11.3%
14,COc1cc2c(cc1OC)C(COc1ccc3c(C)cc(=O)oc3c1)N(C(=O)c1ccc(C)cc1)CC2 (stereo unspecified),inactive: -17.8%
15,Cc1ccc(C)c(NC(=O)CSc2nc(=O)n(CCN3CCOCC3)c3c2CCC3)c1,inactive: -4.31%
16,COc1ccc(C2c3c(n(C)c4ccccc34)C(=O)N2CC(=O)Nc2c(C)cc(C)cc2C)cc1 (stereo unspecified),inactive: -14.6%
17,CCC(=O)N1c2ccccc2CC1C(=O)NCCCN1CCN(c2cccc(Cl)c2)CC1 (stereo unspecified),inactive: -6.99%
18,CC(C)Cn1cc(NC(=O)NCc2ccc(Cl)cc2)c2ccccc2c1=O,inactive: -10.1%
19,CCOc1ccccc1CNC(=O)C(CC)n1nc(C)c2c(C)n(-c3ccccc3)nc2c1=O (stereo unspecified),inactive: -20.3%
20,Cc1c(C(=O)NCc2ccccc2Cl)sc2nc3n(c(=O)c12)CCCC3,inactive: 15.3%
21,COc1ccc(Br)c2c1-c1nc(NC(=O)c3ccc(F)cc3)sc1C2,inactive: -2.18%
22,CCOC(=O)N1CCC(NC(=O)c2ccc3c(c2)N(Cc2ccccc2)C(=O)c2ccccc2S3(=O)=O)CC1,inactive: -29.7%
23,Cc1ccc2c(c1)C(=O)OC(C(=O)Nc1ccc(C(=O)O)cc1)C2 (stereo unspecified),inactive: 0.793%
24,O=C(Nc1ccc(Cl)cc1)c1ccc2oc(=O)n(Cc3ccccc3)c2c1,inactive: -16.2%

row,Compound,"activity change, positive = activation"
1,COc1ccc(C(=O)CN2CCN(S(=O)(=O)c3ccc(F)cc3)CC2)cc1,inactive: -16.4%
2,COCCCNc1nc2c(c(=O)n(Cc3ccccc3)c(=O)n2C)n1C,inactive: 0.322%
3,Cc1ccc(Sc2ccc(N3CCCC(C(=O)Nc4ccc(Br)cc4)C3)nn2)cc1 (stereo unspecified),inactive: -24.8%
4,Cc1c(C)n(Cc2ccccc2)c2ccc(C(=O)N3CCN(c4ccccc4F)CC3)cc12,inactive: -2.09%
5,Cc1nc2ccn(Cc3cccnc3)c(=O)c2cc1C(=O)N1CCN(c2ccccc2F)CC1,inactive: -4%
6,O=C(NCCc1ccc(Cl)cc1)c1cc(-c2ccccc2)n[nH]1,inactive: -14.4%
7,COc1ccc(SCc2cc(=O)c3ccc(C)c(C)c3[nH]2)cc1,inactive: -13.8%
8,CCOc1ccc(-c2nnc(SCC(=O)NC3CCCCC3)nc2-c2ccc(OCC)cc2)cc1,inactive: 1.39%
9,Cc1ccc(C)c(N2CCN(c3nc4ccccc4c(=O)n3-c3ccc(Cl)cc3)CC2)c1,inactive: -22.3%
10,COc1ccc2c(c1)Cc1sc(NC(=O)c3ccccc3C)nc1-2,inactive: 17%
11,COc1ccc(NC(=O)Cn2cnc3ccc(S(=O)(=O)N4CCC(C)CC4)cc3c2=O)c(OC)c1,inactive: -29.2%
12,COc1cccc(CNC(=O)c2ccc(-c3nc(CS(=O)c4ccccc4)c(C)o3)cc2)c1 (stereo unspecified),inactive: -30.4%
13,COc1cc2nc(N(C)CCCNC(=O)C3CCCO3)nc(N)c2cc1OC (stereo unspecified),inactive
14,COc1ccc(C2=C(C)C(N3CCC(C(=O)NCc4ccc(C)o4)CC3)=NS2(=O)=O)cc1,inactive: -6.31%
15,CCN(CCCNC(=O)CSc1cc(=O)n(CC)c2ccccc12)c1ccccc1,inactive: 0%
16,Clc1ccc(Cn2c(CN3CCCC3)nc3ccccc32)cc1,inactive: -10.3%
17,Oc1ccc2ccccc2c1SSc1c(O)ccc2ccccc12,inactive: -22%
18,O=C(NC1CCCC1)c1ccc2c(=O)n(Cc3ccccc3)c(SCc3ccc([N+](=O)[O-])cc3)nc2c1,inactive: -2.67%
19,CCc1ccc(NC(=O)Nc2cn(C)c(=O)c3ccccc23)cc1,inactive: -32.7%
20,CCc1ccc(CNC(=O)Cn2ccc3cc(S(=O)(=O)N4CCCCCC4)ccc32)cc1,inactive: -21%
21,CCc1ccc(-n2nc(CO)c(C(=O)NC(C)c3ccc(Cl)cc3)n2)cc1 (stereo unspecified),inactive: -3.9%
22,COc1cccc(CNC(=O)CN2C(=O)CCc3cc(S(=O)(=O)N4CCOCC4)ccc32)c1,inactive: -17%
23,COc1ccc(OC)c2sc(N(Cc3cccnc3)C(C)=O)nc12,inactive: -2.7%
24,CCOC(=O)N1CCN(Cc2nc3cc(NC(=O)CC)ccc3n2C(C)C)CC1,inactive: -41.3%

row,Compound,"activity change, positive = activation"
1,COC(=O)c1nnn(-c2cccc(C)c2)c1N,inactive: 12.5%
2,COc1ccc(-n2c(SCc3nc(-c4ccc(C)cc4)no3)nnc2-c2ccccc2)cc1,inactive: -7.6%
3,CC(C)Oc1ccc(CNC(=O)CN2C(=O)CCn3nc(-c4cn(C)c5ccccc45)cc32)cc1,inactive: -16.8%
4,CCOC(=O)c1ccc(NC(=O)CN(Cc2ccc(C)cc2)S(=O)(=O)c2ccc(C)cc2)cc1,inactive: -6.42%
5,CC1CN(C(=O)Nc2ccc(C(=O)NCc3ccccc3F)cc2)c2ccccc2S1 (stereo unspecified),inactive: -25.8%
6,COC(=O)c1ccc(NC(=O)CSc2n[nH]c(-c3ccccc3)n2)cc1,inactive: -12.2%
7,COc1ccc(OC)c(-c2nnc3ccc(-c4ccc(OC)c(O[C@@H]5CCOC5)c4)nn23)c1,inactive: -31.3%
8,Fc1ccccc1N1CCN(Cc2nnc(-c3ccc4c(c3)OCO4)o2)CC1,inactive: -8.6%
9,Cc1ccc(C)c(N2C(=O)N(Cc3ccccc3C)c3ccccc3S2(=O)=O)c1,inactive: -43.2%
10,Cc1ccccc1OCC(=O)Nc1ccc2oc(-c3ccc(F)cc3)nc2c1,inactive: -2.36%
11,O=C(Nc1nc2c(Cl)cccc2s1)c1ccc(S(=O)(=O)N2CCc3ccccc32)cc1,inactive: -41.7%
12,CCN(CC)c1ccc(NC(=O)Cn2ncc3c(C)n(Cc4ccccc4F)c(C)c3c2=O)c(C)c1,inactive: -3.56%
13,Cc1ccc(NC(=O)Cc2ccc(NC(=O)N3CCCCc4ccccc43)cc2)cc1Cl,inactive: -6.91%
14,CCOC(=O)c1ccc(N2C(=O)c3n[nH]c(-c4ccco4)c3C2c2ccc(OC)cc2OC)cc1 (stereo unspecified),inactive: -60.4%
15,COc1cccc(-c2nc(S(=O)(=O)c3ccc(C)cc3)c(N3CCCCCC3)o2)c1,inactive: -21.3%
16,Cc1cccc(C)c1-n1ncc(C(=O)NCCCN2CCCCC2)c1C1CCN(C(=O)OC(C)(C)C)CC1,inactive: -21%
17,CCCCOc1ccc(C(=O)NCC(c2ccc(Cl)cc2)N2CCOCC2)cc1 (stereo unspecified),inactive: 8.06%
18,COc1ccc(-c2nc(-c3cc4cc(Br)ccc4oc3=O)cs2)cc1,inactive: 1.82%
19,COc1ccccc1N1CCN(c2nc3ccccc3n3cnnc23)CC1,inactive: 15.7%
20,O=C(CCn1nc(-c2ccccc2)c2ccccc2c1=O)Nc1ccccc1,inactive: -15.2%
21,Cc1cccc(C)c1NC(=O)Nc1csc2c1CCCC2,inactive: -18.3%
22,Cc1ccc2nc(N(CCCN(C)C)C(=O)c3ccco3)sc2c1,inactive: 14.4%
23,Cc1ccc(-n2nc(CO)c(C(=O)NCc3ccccn3)n2)cc1,inactive: -8.15%
24,CC(=O)Nc1ccc(NC(=O)c2cc(=O)c3ccccc3o2)cc1,inactive: 22.2%
